Laboratory results reported in the supplement of paper PMC10037445.
Several values for one entry are separate records, joined by “and”; a condition that tells them apart may be missing. Equal values may be shown once. In all, about 2,900 compounds were measured (“IRF Lucia reporter activity, fold change vs agonist alone”: median about 0.9, highest 2% from about 2.8 on). Some of the results follow.

Columns and labels:
[1] = system: RAW-Dual; test: IRF Lucia reporter activity, fold change vs agonist alone; cytotoxicity flag (confluency mask): not cytotoxic; higher = enhanced IRF activity
Outline: (§1)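 RAW-Dual macrophages were seeded in DMEM at 50,000 cells/well in 384-well plates, given 50 nL of library stock by pin tool, and given a PRR agonist 1 h later. Plates were held at 37 °C, 5% CO2 for 20 hours, after which supernatant was read for IRF by QuantiLuc luminescence and for NF-κB by QuantiBlue absorbance at 620 nm. Reporter activity is expressed as fold change over wells that received agonist alone. A well was called cytotoxic when IncuCyte confluency fell below 70% of agonist controls in both mask sets.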

[2] = system: RAW-Dual; test: IRF Lucia reporter activity, fold change vs agonist alone; higher = enhanced IRF activity; settings: library stock concentration (final ~1000-fold dilution): 10 mM, agonist: MPLA (TLR4) […]
Outline: as §1

[3] = system: RAW-Dual; test: IRF Lucia reporter activity, fold change vs agonist alone; cytotoxicity flag (confluency mask): cytotoxic (confluency <70% of control); higher = enhanced IRF activity
Outline: as §1

[4] = agonist: 3'3'-cGAMP (STING) 10 ug/mL
[5] = cytotoxicity flag (confluency mask): not cytotoxic

CCOC(=O)NC1CCC2C(C1)CC1C(=O)OC(C)C1C2/C=C/c1ccc(-c2cccc(F)c2)cn1 (centres undefined) (library stock concentration (final ~1000-fold dilution): 10 mM)
IRF Lucia reporter activity [1, 4]: 0.228 | IRF Lucia reporter activity ([1]; agonist: LPS (TLR4) 0.1 ug/mL): 1.09

CC#CC(=O)Nc1ccc2ncnc(Nc3cccc(Br)c3)c2c1
IRF Lucia reporter activity [2, 5]: 0.361

CC#CC(=O)Nc1ccc2ncnc(Nc3cccc(Br)c3)c2c1 (library stock concentration (final ~1000-fold dilution): 10 mM)
IRF Lucia reporter activity [1, 4]: 0.0133 | IRF Lucia reporter activity ([1]; agonist: LPS (TLR4) 0.1 ug/mL): 0.704

CNC1CCC(c2ccc(Cl)c(Cl)c2)c2ccccc21.Cl (centres undefined)
IRF Lucia reporter activity ([2]; cytotoxicity flag (confluency mask): cytotoxic (confluency <70% of control)): 1.98

CNC1CCC(c2ccc(Cl)c(Cl)c2)c2ccccc21.Cl (centres undefined) (library stock concentration (final ~1000-fold dilution): 10 mM)
IRF Lucia reporter activity [3, 4]: 0.552 | IRF Lucia reporter activity ([3]; agonist: LPS (TLR4) 0.1 ug/mL): 1.62

CCC(C(C)O)n1ncn(-c2ccc(N3CCN(c4ccc(OCC5COC(Cn6cncn6)(c6ccc(F)cc6F)C5)cc4)CC3)cc2)c1=O (centres undefined) (library stock concentration (final ~1000-fold dilution): 10 mM)
IRF Lucia reporter activity [1, 4]: 0.112 | IRF Lucia reporter activity ([1]; agonist: LPS (TLR4) 0.1 ug/mL): 1.7

CCC(C(C)O)n1ncn(-c2ccc(N3CCN(c4ccc(OCC5COC(Cn6cncn6)(c6ccc(F)cc6F)C5)cc4)CC3)cc2)c1=O (centres undefined)
IRF Lucia reporter activity [2, 5]: 2.4

CCCCc1ncc(/C=C(\Cc2cccs2)C(=O)O)n1Cc1ccc(C(=O)O)cc1.CS(=O)(=O)O (library stock concentration (final ~1000-fold dilution): 10 mM)
IRF Lucia reporter activity [1, 4]: 0.954 | IRF Lucia reporter activity ([1]; agonist: LPS (TLR4) 0.1 ug/mL): 1.27

CCCCc1ncc(/C=C(\Cc2cccs2)C(=O)O)n1Cc1ccc(C(=O)O)cc1.CS(=O)(=O)O
IRF Lucia reporter activity [2, 5]: 1.04

O=C(O)C(Cc1c[nH]c2ccccc12)N1C(=O)c2ccccc2C1=O (centres undefined) (library stock concentration (final ~1000-fold dilution): 10 mM)
IRF Lucia reporter activity [1, 4]: 1.04 | IRF Lucia reporter activity ([1]; agonist: LPS (TLR4) 0.1 ug/mL): 0.995

O=C(O)C(Cc1c[nH]c2ccccc12)N1C(=O)c2ccccc2C1=O (centres undefined)
IRF Lucia reporter activity [2, 5]: 0.981

CCc1ccc(Cc2ccc3c(c2)[C@]2(OC3)O[C@H](CO)[C@@H](O)[C@H](O)[C@H]2O)cc1 (library stock concentration (final ~1000-fold dilution): 10 mM)
IRF Lucia reporter activity [1, 4]: 1.08 | IRF Lucia reporter activity ([1]; agonist: LPS (TLR4) 0.1 ug/mL): 1.35

CCOC(=O)C1=C(C)NC(C)=C(C(=O)OCC)C1c1ccccc1/C=C/C(=O)OC(C)(C)C (library stock concentration (final ~1000-fold dilution): 10 mM)
IRF Lucia reporter activity [1, 4]: 0.897 and 0.544 | IRF Lucia reporter activity ([1]; agonist: LPS (TLR4) 0.1 ug/mL): 1.07 and 0.643

CCOC(=O)C1=C(C)NC(C)=C(C(=O)OCC)C1c1ccccc1/C=C/C(=O)OC(C)(C)C
IRF Lucia reporter activity [2, 5]: 0.779

O=C(O)c1ccc(CSc2nc(-c3ccccc3)cc(N3CCN(c4ccccc4Cl)CC3)n2)cc1 (library stock concentration (final ~1000-fold dilution): 10 mM)
IRF Lucia reporter activity [1, 4]: 0.715 | IRF Lucia reporter activity ([1]; agonist: LPS (TLR4) 0.1 ug/mL): 1.37
